Laboratory results: PubChem BioAssay AID602292 (National Center for Advancing Translational Sciences (NCATS), 2012)
Among all 1,300 compounds or so, about 380 (29%) were called active. This list was built around the results that the source calls inconclusive (neither active nor inactive); the mix of calls is not that of the screen. Calls follow the shape of the dose curve; as a rule, active = well fitted inhibition curve with a large enough effect; inconclusive = small, poorly fitted or top-dose-only effect; inactive = flat fitted curve, though single readings scatter. Potencies beside an inconclusive call are fits to weak or partial responses and may not hold up.

Each compound was assayed against Thyrotropin receptor (Homo sapiens) (UniProt P16473) (assay: qHTS for antagonists of the Thyroid Stimulation Hormone Receptor: Hit Validation in Primary Screen). Conditions: TSHR-expressing cells, cAMP antagonist mode; series mostly up to 58 µM; activity change, negative = inhibition: at the top concentration.
Method in brief: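 Competitive HTRF detected cAMP in lysates of TSHR cells, read 30 minutes after antibody and d2 addition at room temperature. Before lysis, cells had 2 hours at 37 deg C with compound plus EC80 TSH, 4nM final.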
% is scaled to controls: 0 for no effect and ±100 for the full control effect; potency is read from the fitted curve at half-maximal effect; tags tell the direction and shape of the fitted curve.
Also: nearly all actives have a fitted effect of over 80% in size.
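For activity change, negative = inhibition in this document: cells stimulated with TSH at EC80 of 4 nM during compound exposure; cAMP by competitive HTRF where cellular cAMP lowers the 665 nm FRET signal.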

Chain of UniProt P16473 (P16473 whole entry, looked up): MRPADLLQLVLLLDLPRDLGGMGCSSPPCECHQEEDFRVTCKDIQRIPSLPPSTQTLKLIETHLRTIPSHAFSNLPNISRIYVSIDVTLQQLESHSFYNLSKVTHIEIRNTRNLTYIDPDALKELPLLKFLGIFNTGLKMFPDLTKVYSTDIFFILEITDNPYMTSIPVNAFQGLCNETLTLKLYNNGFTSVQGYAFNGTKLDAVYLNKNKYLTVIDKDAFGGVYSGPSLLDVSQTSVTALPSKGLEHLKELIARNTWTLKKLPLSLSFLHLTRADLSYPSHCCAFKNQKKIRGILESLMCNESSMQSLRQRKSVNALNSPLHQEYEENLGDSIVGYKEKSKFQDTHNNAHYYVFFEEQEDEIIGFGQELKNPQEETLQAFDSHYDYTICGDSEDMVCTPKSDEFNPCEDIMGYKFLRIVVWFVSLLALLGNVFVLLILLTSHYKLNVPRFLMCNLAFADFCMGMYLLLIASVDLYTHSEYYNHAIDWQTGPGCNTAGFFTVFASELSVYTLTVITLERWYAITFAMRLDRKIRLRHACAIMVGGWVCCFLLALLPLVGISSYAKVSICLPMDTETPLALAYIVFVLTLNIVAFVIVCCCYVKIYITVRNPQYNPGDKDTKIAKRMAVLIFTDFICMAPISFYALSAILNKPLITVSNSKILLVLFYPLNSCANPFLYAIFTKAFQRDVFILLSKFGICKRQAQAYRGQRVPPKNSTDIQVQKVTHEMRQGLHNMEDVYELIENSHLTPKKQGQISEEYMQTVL

Potency, inconclusive:
Cc1csc2ncnc(N3CCN(S(=O)(=O)c4cccc(C(F)(F)F)c4)CC3)c12 60.1 µM [inhibitor, partial curve]
Cc1cc(C(=O)CSc2nnc(-c3ccccc3F)o2)c(C)n1Cc1cccs1 239 µM [inhibitor, partial curve]
Cc1ccc(OCc2cc(C(=O)NC3CCCCC3)no2)cn1 21.3 µM [inhibitor, partial curve, poor fit]
Cc1ccc(-c2csc(NC(=O)c3ccc4c(=O)n5c(nc4c3)CCCCC5)n2)cc1 15.1 µM [inhibitor, partial curve, poor fit]
COc1cc(/C=N/OCC(=O)NC23CC4CC(CC(C4)C2)C3)ccc1OCc1ccccc1 75.7 µM [inhibitor, partial curve]
Cc1cc(Br)ccc1OCC(=O)NC1CCCC1 47.8 µM [inhibitor, partial curve]
Cc1ccccc1-c1cc(C(=O)Nc2sc(C(=O)OC(C)C)c(C)c2C#N)c2ccccc2n1 23.9 µM [inhibitor, partial curve]
CC(Sc1nnc(-c2cccs2)n1Cc1ccccc1)C(=O)NCc1ccc2c(c1)OCO2 (stereo not drawn) 95.3 µM [inhibitor, partial curve]
COc1ccc(C2=NS(=O)(=O)N(C)C(C(=O)Nc3ccc4c(c3)OCO4)=C2)cc1OC 12 µM [inhibitor, partial curve, poor fit]
COc1ccc(C(=O)Nc2cccc(NC(=O)c3cccs3)c2)cc1OC 37.9 µM [inhibitor, partial curve, poor fit]
O=C(Nc1ccc(SC(F)F)cc1)c1ccc2c(=O)n3c(nc2c1)CCC3 47.8 µM [inhibitor, partial curve]
CCOC(=O)CCCCCC(=O)Nc1ccc2c(c1)CC(=O)N([C@H](C)CO)C[C@@H](C)[C@H](CN(C)Cc1ccc3c(c1)OCO3)O2 33.8 µM [inhibitor, partial curve, poor fit]
Cc1ccc(S(=O)(=O)N2[C@@H](c3ccccc3F)C(C(=O)O)=CC[C@H]2c2ccc(Cl)c(Cl)c2)cc1 37.9 µM [inhibitor, partial curve]
CCCC(=O)Nc1cccn(Cc2ccccc2Br)c1=O 75.7 µM [inhibitor, partial curve]
COc1ccccc1-n1cnc2cc(NS(=O)(=O)c3ccc(Br)cc3)ccc21 47.8 µM [inhibitor, partial curve, poor fit]
O=C(CC1S/C(=N/N=C2CCCCCC2)NC1=O)Nc1ccc(Br)cc1F (stereo not drawn) 37.9 µM [inhibitor, partial curve, poor fit]
CCN(Cc1ccccc1)c1ccc(/C=C(\C#N)c2ccccn2)cc1 8.49 µM [inhibitor, partial curve, poor fit]
CC(C)CN=Cc1c(O)c([N+](=O)[O-])cc2oc3c(c12)CCCC3 75.7 µM [inhibitor, partial curve]
COc1cccc(-c2nc(-c3ccc(NC(=O)c4cccnc4)cc3)no2)c1 26.9 µM [inhibitor, partial curve, poor fit]
CCOC(=O)c1c(-c2ccccc2)csc1NC(=O)CSc1nnnn1C 8.49 µM [inhibitor, partial curve, poor fit]
COc1ccc(-c2csc(NC(=O)C3=NN(c4ccccc4)C(=O)CC3)n2)cc1 19 µM [inhibitor, partial curve, poor fit]
CCOc1ncccc1C(=O)Nc1ccc(C)c(S(=O)(=O)N2CCCCCC2)c1 21.3 µM [inhibitor, partial curve, poor fit]
Cc1onc(-c2ccccc2Cl)c1C(=O)NC(=S)Nc1ccc(C(C)(C)C)cc1 757 µM [inhibitor, partial curve, poor fit]
CCn1c(=NC(=O)CSC(C)=O)sc2cc(OC)ccc21 12 µM [inhibitor, partial curve, poor fit]

Potency, active:
CC(NC(=O)/C(C#N)=C/c1ccc([N+](=O)[O-])o1)c1ccccc1 (stereo not drawn) 30.1 µM
Cc1cc(NC(=O)c2cc(-c3ccco3)on2)nn1Cc1ccc(Cl)cc1 30.1 µM
COc1ccc(CCNC(=O)c2ccc(-c3ccc([N+](=O)[O-])cc3Cl)o2)cc1OC 23.9 µM
Cc1cc(C(=O)CSc2nc3ccccc3[nH]2)c(C)n1CC1CCCO1 (stereo not drawn) 21.3 µM
N#C/C(=N\Nc1ccc(Cl)c(Cl)c1)C(=O)C1CC1 6.01 µM
CC(C)(C)c1ccc(C(=O)CC(Sc2ccc(Cl)cc2)C(=O)O)cc1 (stereo not drawn) 37.9 µM
COc1ccc(-c2nn(-c3ccccc3)cc2/C=N/NC(=O)c2ccc(Br)o2)cc1 9.53 µM
CCCc1ccc(-c2c(C)sc(NC(=O)c3ccnn3C)c2C#N)cc1 23.9 µM
Cc1cccc(/C=C/C(=O)c2cc(Br)ccc(=O)c2O)c1 15.1 µM

Activity change, negative = inhibition, inactive:
Cc1cc(C)c2oc(C(=O)Nc3ccc(S(=O)(=O)Nc4nccc(C)n4)cc3)cc(=O)c2c1 -4.03%
CC(C)Cc1ccc(C(C)C(=O)Nc2nccs2)cc1 (stereo not drawn) -12.1%
CCOC(=O)C1(CCOc2ccccc2)CCN(Cc2cccc(OC)c2O)CC1 1.47%
Cc1nc(SCC(=O)N2CCN(c3ccccc3)CC2)n[nH]1 -6.86%
CN1C(=O)/C(=C/c2ccc(OCc3ccccc3F)cc2)NC1=S -0.922%
CC(C)(CNC(=O)C1c2ccccc2-c2ccccc21)N1CCOCC1 2.56%
COc1ccc(/C=C/C(=O)Nc2nc(C)cc(C)n2)cc1OC -1.33%
Cc1cc(OCc2cc(C(=O)NCc3csc(C(C)C)n3)no2)cc(C)c1Cl -20.8%
Cc1ccccc1NC(=O)C1(C)Cc2ccccc2C(=O)O1 (stereo not drawn) -2.25%
CC(C)C1Nc2ccc(C(=O)N3CCN(c4ccccn4)CC3)cc2NC1=O (stereo not drawn) -6.86%
